Article PMC9911399, “Two distinct binding modes provide the RNA-binding protein RbFox with extraordinary sequence specificity”
Where a chain is given by its changes, count along the chain named. The list shows a part of the results.

T1: RBFOX1 RRM (Homo sapiens, UniProt Q9NWB1 109-208)
T1 sequence: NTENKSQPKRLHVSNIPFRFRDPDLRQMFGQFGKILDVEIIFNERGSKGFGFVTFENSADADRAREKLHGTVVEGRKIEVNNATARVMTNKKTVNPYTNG

B1: UCGUCUU (DNA:RNA)
RNA: GGGAGACCGGAAUUCAGAUUGUCCUCGUCUUUUAAAUCCCGUCGUAGCCACCA
DNA 1: CAATCTGAATTCCGGTCTCCC
DNA 2: TGGTGGCTACGACGGGATT
B2: UAAGCCC (DNA:RNA)
RNA: B1 RNA with C26A, G27A, U28G, U30C, U31C
DNA 1: CAATCTGAATTCCGGTCTCCC
DNA 2: TGGTGGCTACGACGGGATT
B3: UCCAGAA (DNA:RNA)
RNA: B1 RNA with G27C, U28A, C29G, U30A, U31A
DNA 1: CAATCTGAATTCCGGTCTCCC
DNA 2: TGGTGGCTACGACGGGATT
B4: CUCCUCU (DNA:RNA)
RNA: B1 RNA with U25C, C26U, G27C, U28C, C29U, U30C
DNA 1: CAATCTGAATTCCGGTCTCCC
DNA 2: TGGTGGCTACGACGGGATT
B5: AUGAUCA (DNA:RNA)
RNA: B1 RNA with U25A, C26U, U28A, C29U, U30C, U31A
DNA 1: CAATCTGAATTCCGGTCTCCC
DNA 2: TGGTGGCTACGACGGGATT
B6: CUUAUUG (DNA:RNA)
RNA: B1 RNA with U25C, C26U, G27U, U28A, C29U, U31G
DNA 1: CAATCTGAATTCCGGTCTCCC
DNA 2: TGGTGGCTACGACGGGATT
B7: UUUGCGU (DNA:RNA)
RNA: B1 RNA with C26U, G27U, U28G, U30G
DNA 1: CAATCTGAATTCCGGTCTCCC
DNA 2: TGGTGGCTACGACGGGATT
B8: UCCACCC (DNA:RNA)
RNA: B1 RNA with G27C, U28A, U30C, U31C
DNA 1: CAATCTGAATTCCGGTCTCCC
DNA 2: TGGTGGCTACGACGGGATT
B9: CGUAACA (DNA:RNA)
RNA: GGGAGACCGGAAUUCAGAUUGUCCCGUAACAUUAAAUCCCGUCGUAGCCACCA
DNA 1: CAATCTGAATTCCGGTCTCCC
DNA 2: TGGTGGCTACGACGGGATT
B10: GAGUGUU (DNA:RNA)
RNA: B1 RNA with U25G, C26A, C29G
DNA 1: CAATCTGAATTCCGGTCTCCC
DNA 2: TGGTGGCTACGACGGGATT
B11: UUAUUAU (DNA:RNA)
RNA: B1 RNA with C26U, G27A, C29U, U30A
DNA 1: CAATCTGAATTCCGGTCTCCC
DNA 2: TGGTGGCTACGACGGGATT
B12: AGAGUGA (DNA:RNA)
RNA: B9 RNA with C25A, U27A, A28G, A29U, C30G
DNA 1: CAATCTGAATTCCGGTCTCCC
DNA 2: TGGTGGCTACGACGGGATT
B13: GACGGCA (DNA:RNA)
RNA: B9 RNA with C25G, G26A, U27C, A28G, A29G
DNA 1: CAATCTGAATTCCGGTCTCCC
DNA 2: TGGTGGCTACGACGGGATT
B14: ACAGCCA (DNA:RNA)
RNA: B9 RNA with C25A, G26C, U27A, A28G, A29C
DNA 1: CAATCTGAATTCCGGTCTCCC
DNA 2: TGGTGGCTACGACGGGATT
B15: GGCCAUC (DNA:RNA)
RNA: B9 RNA with C25G, U27C, A28C, C30U, A31C
DNA 1: CAATCTGAATTCCGGTCTCCC
DNA 2: TGGTGGCTACGACGGGATT
B16: CUUCCUA (DNA:RNA)
RNA: B9 RNA with G26U, A28C, A29C, C30U
DNA 1: CAATCTGAATTCCGGTCTCCC
DNA 2: TGGTGGCTACGACGGGATT
B17: UGGGAUU (DNA:RNA)
RNA: B1 RNA with C26G, U28G, C29A
DNA 1: CAATCTGAATTCCGGTCTCCC
DNA 2: TGGTGGCTACGACGGGATT
B18: GGUUAAG (DNA:RNA)
RNA: B9 RNA with C25G, A28U, C30A, A31G
DNA 1: CAATCTGAATTCCGGTCTCCC
DNA 2: TGGTGGCTACGACGGGATT
B19: AAAAACG (DNA:RNA)
RNA: B9 RNA with C25A, G26A, U27A, A31G
DNA 1: CAATCTGAATTCCGGTCTCCC
DNA 2: TGGTGGCTACGACGGGATT
B20: GCUAAUC (DNA:RNA)
RNA: B9 RNA with C25G, G26C, C30U, A31C
DNA 1: CAATCTGAATTCCGGTCTCCC
DNA 2: TGGTGGCTACGACGGGATT

molecular target: T1, RBFOX1 RRM; assay: EMSA; HiTS-Eq, 1 nM pool, 10 min; buffer printed only for the single-RNA assays: 10 mM Tris pH 7.5, 150 mM NaCl, 3.4 mM EDTA, 0.001% NP-40, 30 C; details: tags: His6 N-terminal (pET28a); label: 5' 32P
Procedure, shortened: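 These values rest on relative association constants, computed from read-count changes of each RNA species versus the control reaction and normalised to the cognate motif. Reads came from free RNA recovered by 8% native PAGE after purified RbFox RRM (wild type or mutant) at increasing concentrations was equilibrated for 10 min in 50 µL with 1 nM of a 5′-radiolabelled pool with 7 randomized nucleotides and DNA-annealed flanks.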

Binder	binding signal
B1	0.0148 KA relative to UGCAUGU
B2	0.00492 KA relative to UGCAUGU
B3	0.00721 KA relative to UGCAUGU
B4	0.0048 KA relative to UGCAUGU
B5	0.00408 KA relative to UGCAUGU
B6	0.0165 KA relative to UGCAUGU
B7	0.0235 KA relative to UGCAUGU
B8	0.00265 KA relative to UGCAUGU
B9	0.00151 KA relative to UGCAUGU
B10	0.0242 KA relative to UGCAUGU
B11	0.00287 KA relative to UGCAUGU
B12	0.0136 KA relative to UGCAUGU
B13	0.0186 KA relative to UGCAUGU
B14	0.00079 KA relative to UGCAUGU
B15	0.00671 KA relative to UGCAUGU
B16	0.00309 KA relative to UGCAUGU
B17	0.0315 KA relative to UGCAUGU
B18	0.00797 KA relative to UGCAUGU
B19	0.00122 KA relative to UGCAUGU
B20	0.00596 KA relative to UGCAUGU
